Measured values: PubChem BioAssay AID1159614 (National Center for Advancing Translational Sciences (NCATS), 2016)
Hit rate of the full screen: of about 45,000 compounds, about 65 (0.1%) were called active. The call rests on the fitted dose curve; in most records, active means well fitted activation curve with a large enough effect; inconclusive means small, poorly fitted or top-dose-only effect; inactive means no such curve, though single readings can be large or run the other way. This is one part of the list.

The compounds below were run against Galactocerebrosidase (Homo sapiens) (UniProt P54803) (assay: A Novel Cell-Based Assay to Identify Small Molecules for B -Galactocerebrosidase). Details: 145M-Twi-hGALC-G270D cells (Twitcher mouse brain line with human GALC G270D), HMU-beta-Gal fluorescence, 48 h; series mostly up to 57.5 µM; activation: at the top concentration.
Sequence of UniProt P54803 (P54803 whole entry, looked up): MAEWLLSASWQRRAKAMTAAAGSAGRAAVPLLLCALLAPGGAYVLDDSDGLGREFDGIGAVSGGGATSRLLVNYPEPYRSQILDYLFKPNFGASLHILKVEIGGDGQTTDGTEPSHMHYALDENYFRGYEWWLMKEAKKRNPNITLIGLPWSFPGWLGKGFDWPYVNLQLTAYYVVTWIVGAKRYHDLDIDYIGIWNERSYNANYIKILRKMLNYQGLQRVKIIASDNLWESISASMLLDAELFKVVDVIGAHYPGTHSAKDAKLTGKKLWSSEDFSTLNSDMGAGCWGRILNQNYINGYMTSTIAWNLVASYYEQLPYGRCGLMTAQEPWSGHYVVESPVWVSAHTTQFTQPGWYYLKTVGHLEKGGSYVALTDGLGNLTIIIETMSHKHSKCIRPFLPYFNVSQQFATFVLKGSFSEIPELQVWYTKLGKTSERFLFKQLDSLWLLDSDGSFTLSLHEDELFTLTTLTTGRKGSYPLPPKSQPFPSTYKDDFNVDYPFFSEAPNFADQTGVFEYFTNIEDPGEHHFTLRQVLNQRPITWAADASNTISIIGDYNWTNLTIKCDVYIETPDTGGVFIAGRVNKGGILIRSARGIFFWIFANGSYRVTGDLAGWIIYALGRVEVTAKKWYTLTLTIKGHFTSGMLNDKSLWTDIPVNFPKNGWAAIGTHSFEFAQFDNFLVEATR
Outline: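 Mutant human GALC (G270D), stably expressed in a Twitcher mouse brain cell line lacking endogenous GALC, is measured in live-treated cells via 6-hexadecanoylamino-4-methylumbelliferyl-β-galactoside hydrolysis (0.1 mM final, pH 5.2) with fluorescent detection.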
Further: 0% is about no effect; nearly all actives have a fitted effect of over 65% in size.

activation, inactive:
CCS(=O)(=O)c1ncc(N(Cc2cccc(F)c2)Cc2ccco2)c(C(=O)Nc2ccccc2Cl)n1 -8.87%
Cc1nc2c(-c3ccccc3)c(C)[nH]n2c(=O)c1Cc1ccc(C(C)C)cc1 -29.4%
CCC1CN(C(=O)N2CCC(C(=O)N(C)Cc3ccccc3)CC2)c2ccccc2O1 (stereo not drawn) 2.22%
Cc1ccc2nc(CN3CCN(C(=O)Nc4cccc(C)c4C)CC3)oc2c1 -12.1%
Cc1ccc(CNC(=O)c2cc(S(=O)(=O)N3CCCCC3)cn2C)cc1 -19.9%
CCOc1ccccc1NC(=O)CCNS(=O)(=O)c1ccc2c(c1)CCN2C(=O)C1CC1 -13.8%
CCC(Sc1nnc(-c2ccc(OC)cc2)c(-c2ccc(OC)cc2)n1)C(=O)Nc1cccc(OC)c1 (stereo not drawn) -9.19%
Fc1ccccc1N1CCN(c2c3c(nc4nncn24)CCC3)CC1 -4.19%
CCCCN(C)C(=O)Cn1ncc2c([nH]c3ccc(C)cc32)c1=O 5.6%
Cc1ccc(OCCCC(=O)Nc2sc3c(c2C(N)=O)CCCC3)cc1 -12.4%
Cn1ncc2c(N3CCN(c4ccccc4Cl)CC3)ncnc21 -15.4%
COc1ccc(NC(=O)CN(c2ccc(C)cc2)S(=O)(=O)c2cccs2)cc1OC -13.6%
CCCCS(=O)CC(O)CSc1nc(-c2ccc(OC)cc2)cc(-c2ccccc2)c1C#N (stereo not drawn) -9.19%
Cc1ccc(/C=C/c2onc(C)c2S(=O)(=O)N2CCC(C(=O)NCc3ccc(N(C)C)cc3)CC2)cc1 -9.39%
COc1ccccc1NC(=O)c1sc2nc(-c3cc4ccccc4oc3=O)[nH]c(=O)c2c1C -7.43%
Cc1cc(C)cc(NC(=O)c2cccc(N3CCCS3(=O)=O)c2)c1 -8.44%
Cc1cccc(NC(=O)c2c(NC(=O)c3ccco3)sc3c2CCC(C(C)(C)C)C3)c1 (stereo not drawn) -10.4%
CN(Cc1ccccc1)C(=O)C1CCN(Cc2cc3ccccc3n2Cc2ccccc2)CC1 -16.4%
C#Cc1cccc(Nc2ncnc3cc(OCCOC)c(OCCOC)cc23)c1 -8.16%
Cc1cccc(C(=O)Nc2nnc(SCc3cc(=O)n4cccc(C)c4n3)s2)c1 -9.52%
O=C(Cc1ccc(Cl)cc1)NCC(c1cccs1)S(=O)(=O)c1ccc(Cl)cc1 (stereo not drawn) -2.57%
O=C(CSc1nnc(-c2ccccc2F)o1)N1CCc2ccccc21 -11.7%
COc1ccc(C(=O)N/C(=C\c2cn(S(=O)(=O)N(C)C)c3ccccc23)C(=O)NCCCn2ccnc2)cc1 -0.671%
CCCCN(C)CCNC(=O)c1ccc2c(=O)n(CCc3ccccc3)c(=O)[nH]c2c1 -11.4%
CCc1ccc(NC(=O)C(NS(=O)(=O)c2cccs2)C(C)C)cc1 (stereo not drawn) -9.2%
O=C(Nc1ccc2oc(-c3cccc4c(Br)cccc34)nc2c1)c1ccc(F)cc1 -17.5%
Cn1c(=O)c2c(c3ccccc31)OC(=O)CC2c1ccc(C(F)(F)F)cc1 (stereo not drawn) -15.8%
O=C(COC(=O)c1cc(-c2cccs2)nc2ccccc12)c1ccccc1 -16%
CCOC(=O)c1oc2ccc(S(=O)(=O)n3nc(-c4ccccc4OC)cc3N)cc2c1C -13%
CCCN(Cc1cccs1)C(=O)Nc1cc(Cl)c(OC)cc1OC -15.2%
CCCN(CCC)CCCNC(=O)Cn1cnc2sc(C)c(S(=O)(=O)N3CCCCC3)c2c1=O -25%
O=C(c1ccc2c(c1)N(Cc1ccccc1F)C(=O)c1ccccc1S2(=O)=O)N1CCOCC1 -2.7%
CCn1c(=O)n(-c2ccc(C)c(F)c2)c(=O)c2sc3ccccc3c21 -19.4%
COc1ccc(-c2cc(C(=O)Oc3ccccc3)c3cc(C)ccc3n2)cc1 -21.4%
COc1cccc(-n2c(SCC(=O)Nc3cc(C)ccc3C)nc3c(oc4ccccc43)c2=O)c1 -10.6%
CCOCCCNC(=O)c1ccc2nc(CCc3ccccc3)oc2c1 -4.7%
COc1ccc(C2=NC3(CCCCC3)N(CC(=O)Nc3ccc(C(C)C)cc3)C2=O)cc1 -8.66%
Cc1ccc(-c2nc3nc(C)cc(N4CCN(c5cc(Cl)ccc5C)CC4)n3n2)cc1 -9.45%
Cc1ccc2nc(N(Cc3cccnc3)C(=O)Cc3ccccc3)sc2c1 -22.2%
COc1cccc(CN2CCc3nc(Nc4ccc5c(c4)OCCO5)ncc3C2)c1 -9.98%
O=C(NCCc1cccs1)c1ccc(Cn2c(SCc3ccc(F)cc3)nc3cccnc32)cc1 -14.8%
Fc1ccc(NCc2cccn2-c2nnc(N3CCOCC3)s2)cc1 -22.4%
CC1CCN(c2ncnc3c2cnn3-c2ccc(F)cc2)CC1 -3.91%
CCc1ccc(-n2c(=O)c3c4c(sc3n(CC(=O)NCCCOC)c2=O)CCCC4)cc1 -3.48%
COc1ccc(C(=O)CN2CCN(S(=O)(=O)c3ccc(C(C)C)cc3)CC2)cc1 -21%
CCc1ccccc1NC(=O)CCn1nc(C)c2c(C)n(-c3ccccc3)nc2c1=O -15.3%
COc1cccc(C2CC(=O)Nc3cc4c(cc32)OCCO4)c1OC (stereo not drawn) -18.4%
CCOC(=O)c1ccccc1NC(=O)Cn1ncc2c([nH]c3ccccc32)c1=O -11.5%
Cc1ccccc1Cn1c(SCc2ccc(C(=O)NC(C)c3ccccc3)cc2)nc2ccncc21 (stereo not drawn) -1.76%
COc1cccc(NC(=O)c2sc3nc(C)c(C(=O)Nc4ccc(C)cc4C)c(-c4ccccc4Cl)c3c2N)c1 -23.4%
CCc1ccc(-c2nc(CN3CCC(C(=O)NCCc4ccc(Cl)cc4)CC3)c(C)o2)cc1 -8.03%
CC1(C)O[C@H]2CC(=O)OC[C@]23[C@H]2CC[C@@]4(C)[C@H](c5ccoc5)OC(=O)[C@H]5O[C@]54[C@]2(C)C(=O)C[C@@H]13 -10.2%
NC(N)=NC(=O)Cc1c(Cl)cccc1Cl -13.8%
COC(=O)C1=C(c2ccccc2)c2ccccc2S(=O)(=O)N1CC(=O)Nc1cccc(C(C)=O)c1 -2.45%
Cc1ccc(CCNC(=O)c2ccc(NC(=O)N3CC(C)Sc4ccccc43)cc2)cc1 (stereo not drawn) -14.6%
COc1ccc(-n2nc(C(=O)N(C)c3cccc(C(F)(F)F)c3)c3c4ccccc4n(C)c3c2=O)cc1 -16.6%
COc1cccc(CNC(=O)CCn2c(=O)c3cccn3c3ccc(F)cc32)c1OC 3.61%
CCn1nnc2cc(C(=O)Nc3cccc(Cl)c3)ccc21 -10.4%
Cc1nc2nc(NC(=O)c3cccc(Cl)c3)[nH]n2c(=O)c1Cc1ccccc1 -26.8%
CCCNC(=O)C1CCC(Cn2c(=O)c3sccc3n(Cc3cccc(OC)c3)c2=O)CC1 (stereo not drawn) -11.5%
CCC(C(=O)N1CCN(c2cccc(C)c2C)CC1)n1nc(C)c2sc3ccccc3c2c1=O (stereo not drawn) -13%
O=S(=O)(c1ccc(Br)cc1)c1nc(-c2ccco2)oc1SCc1ccccc1Cl -6.88%
CCCCOc1ccc(CNC(=O)CN2CCSc3ccccc32)cc1 9.3%
Cc1ccc(CCNC(=O)c2nn(C)c3c2CSc2ccccc2-3)cc1 5.32%
CCOC(=O)c1c(S(=O)(=O)N2CCC(C(=O)Nc3ccccc3OC)CC2)c(C)n(CC)c1C -11.2%
COc1ccc(CCNC(=O)Cn2cc(C(=O)c3ccccc3)c(=O)c3ccc(C)nc32)cc1OC -15.2%
CCOc1ccc(-n2c(-c3ccc(C)cc3)nc3c(cnn3-c3ccccc3)c2=O)cc1 -1.88%
CCOC(=O)C1CCC(CN(Cc2ccccc2)S(=O)(=O)c2ccc(Cl)cc2)CC1 (stereo not drawn) -9.12%
COc1ccc(CCNC(=O)CCc2c(C)nc3c(c(C)nn3-c3ccc(C)c(C)c3)c2C)c(OC)c1OC -2.98%
Cc1ccc(NC(=O)CCn2c(=O)c3cccn3c3ccccc32)c(Cl)c1 5.03%
CCCCN(CCCC)CCNC(=O)c1cn(C)c2ccc(S(=O)(=O)N3CCOCC3)cc2c1=O -14.3%
Cc1c(Cl)cccc1NS(=O)(=O)c1ccc2[nH]cc(C(=O)NC3CCCC3)c(=O)c2c1 -4.74%
Cc1ccc2c(c1)c1c(c(=O)n(-c3ccccc3)c(=O)n1CC(=O)N1CCCC1)n2C -7.89%
CCOc1ccc(OCC)c(Nc2nc3ccccc3c3nnc(C)n23)c1 -9.79%
COc1cccc(N2CC(NC(=O)Cc3cccs3)CC2=O)c1 (stereo not drawn) -6.82%
Cc1ccccc1C(=O)Nc1ccccc1C(=O)OCc1cc(=O)n2ccsc2n1 -17%
CN1C(=O)CC(=O)N(C)c2cc(S(=O)(=O)N(C)Cc3ccccc3)ccc21 -14%
Cc1cc(C)c(Cn2c3ccccc3c3cnn(CC(=O)N4CCCCC4)c(=O)c32)c(C)c1 -5.81%
CCn1cc(C(=O)NCCc2ccc(C)cc2)c(=O)c2cc(S(=O)(=O)N(C)C)ccc21 -7.51%
COc1ccc2c(c1)c1c(c(=O)n(-c3ccc(OC)c(OC)c3)c(=O)n1Cc1ccccc1C)n2C -21%
Cc1ccc(S(=O)(=O)c2nc(-c3cccs3)oc2N2CCCCC2)cc1 -20%
Cc1ccc(-n2ncc(C(=O)NCCN3CCN(C)CC3)c2C2CCN(C(=O)OC(C)(C)C)CC2)c(C)c1 -22.8%
CC(=O)c1cccc(NS(=O)(=O)c2ccc3[nH]c4c(c3c2)CCCCCC4)c1 -17.1%
O=C(c1noc2c1CCCCC2)N1CCN(c2ccc(Cl)cc2)CC1 -12.5%
COc1ccccc1NC(=O)Cn1c(=O)n(Cc2ccc3c(c2)OCO3)c(=O)c2oc3ccccc3c21 -2.51%
CCc1ccc(-c2cn3c(n2)sc2cc(C(=O)NCCc4ccc(OC)cc4OC)ccc23)cc1 -15.6%
COc1ccc(OC)c(S(=O)(=O)Nc2cc3c(cc2C)n(C)c(=O)c(=O)n3C)c1 -14.2%
CN(Cc1ccccc1)C(=O)CN1C(=O)CSc2ccc(S(=O)(=O)N3CCOCC3)cc21 -16.2%
COc1ccc(NC(=O)CCS(=O)(=O)c2nc(-c3cccs3)cc(C(F)(F)F)n2)cc1OC -16.7%
Cc1ccc(NC(=O)CN(c2ccccc2)S(=O)(=O)N(C)C)cc1Cl -18.5%
Cc1ccc(NC(=O)NCc2ccc3c(c2)CCN3C(=O)c2ccccc2)c(Cl)c1 7.93%
C#CC(C)(C)NS(=O)(=O)c1cc(-c2nnc(Nc3ccc(C)cc3)c3ccccc23)ccc1C -9.14%
Cc1ccc(NC(=O)c2nn(C)c3c2CS(=O)(=O)c2ccccc2-3)c(Cl)c1 -7.83%
